Source: PubChem BioAssay AID1159614 (National Center for Advancing Translational Sciences (NCATS), 2016)
Screen size: about 45,000 compounds; about 65 (0.1%) were called active. Calls come from the whole dose curve; as a rule, active = well fitted activation curve with a large enough effect; inconclusive = small, poorly fitted or top-dose-only effect; inactive = no such curve, though single readings can be large or run the other way. The list shows a part of the results.

Molecular target: Galactocerebrosidase (Homo sapiens) (UniProt P54803)
Assay: A Novel Cell-Based Assay to Identify Small Molecules for B -Galactocerebrosidase; note: 0% is about no effect; nearly all actives have a fitted effect of over 65% in size
Details: 145M-Twi-hGALC-G270D cells (Twitcher mouse brain line with human GALC G270D), HMU-beta-Gal fluorescence, 48 h; series mostly up to 57.5 µM; activation: at the top concentration
Method in brief: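 Mutant human GALC (G270D), stably expressed in a Twitcher mouse brain cell line lacking endogenous GALC, is measured in live-treated cells via 6-hexadecanoylamino-4-methylumbelliferyl-β-galactoside hydrolysis (0.1 mM final, pH 5.2) with fluorescent detection.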

UniProt P54803, sequence (P54803 whole entry, looked up): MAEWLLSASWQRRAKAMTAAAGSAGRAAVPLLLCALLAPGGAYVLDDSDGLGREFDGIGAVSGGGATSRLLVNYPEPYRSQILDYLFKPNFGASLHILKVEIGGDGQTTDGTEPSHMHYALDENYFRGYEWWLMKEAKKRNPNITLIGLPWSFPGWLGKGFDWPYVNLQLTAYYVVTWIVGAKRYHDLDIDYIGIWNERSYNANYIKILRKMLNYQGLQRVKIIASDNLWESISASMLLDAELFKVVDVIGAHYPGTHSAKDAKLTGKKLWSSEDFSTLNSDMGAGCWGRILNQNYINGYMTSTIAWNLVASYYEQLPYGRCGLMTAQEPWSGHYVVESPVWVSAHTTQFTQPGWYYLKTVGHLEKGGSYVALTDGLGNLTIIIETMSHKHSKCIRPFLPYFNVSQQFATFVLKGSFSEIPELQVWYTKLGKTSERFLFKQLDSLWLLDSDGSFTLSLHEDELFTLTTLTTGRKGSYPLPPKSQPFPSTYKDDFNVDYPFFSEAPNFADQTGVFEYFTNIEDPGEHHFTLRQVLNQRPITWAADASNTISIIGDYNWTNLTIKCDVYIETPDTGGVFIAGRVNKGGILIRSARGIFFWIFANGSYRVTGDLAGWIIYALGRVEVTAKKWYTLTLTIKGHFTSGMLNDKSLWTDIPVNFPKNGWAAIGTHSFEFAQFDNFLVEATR

activation, inactive:
Cc1ccccc1NC(=O)CSc1nc2c(oc3ccccc32)c(=O)n1Cc1ccco1 6.43%
Cc1ccc(C)c(OCc2nc3ccccc3n2C)c1 -19%
CCCSC1=NC2(CCN(C(=O)NC3CCCCC3)CC2)N=C1c1ccc(C)cc1 -15.6%
Cc1cc(C)cc(N(CC(=O)Nc2c(C)cc(C)cc2C)S(=O)(=O)c2c(C)nn(C)c2C)c1 4.37%
COc1ccc(C(=O)Nc2nc3c(s2)Cc2c(Br)ccc(OC)c2-3)cc1OC 0.937%
Cc1ccc(Cn2c(CN3CCC(C(=O)O)CC3)cc3ccccc32)cc1 2%
CCc1ccc(NC(=O)CSc2nnc(CC)c(CC)n2)cc1 -13.3%
CCN(CC)S(=O)(=O)c1cc(-c2ccc(=O)n(C(C)C(=O)Nc3cccc(C#N)c3)n2)ccc1C (centres undefined) -9.38%
CN(CC(=O)Nc1ccc(F)cc1F)S(=O)(=O)c1cccc2nsnc12 -10.7%
COc1ccc(-c2noc(CSc3nnc(Cc4ccccc4)n3-c3ccc(F)cc3)n2)cc1 -16.1%
CCN(CC)CCCNC(=O)c1sc2nc3n(c(=O)c2c1C)CCCCC3 -12.7%
CCOC(=O)c1[nH]c2c(c1Cc1ccccc1)C(=O)CC(c1ccc(C(C)(C)C)cc1)C2 (centres undefined) -43.8%
CCOC(=O)C1CCN(C(=O)c2cnn(-c3ccc(F)cc3)c2-n2cccc2)CC1 5.98%
COc1cc(C2c3c(-c4c(C)cc(C)cc4O)n[nH]c3C(=O)N2Cc2ccco2)cc(OC)c1OC (centres undefined) -6.64%
CCOC(=O)C(C)Sc1nnc2cc(C)c3ccccc3n12 (centres undefined) -11.6%
COc1ccc2oc(-c3cccc(NC(=O)c4cc([N+](=O)[O-])ccc4N4CCOCC4)c3)nc2c1 -14.6%
CC(C)NC(=O)C1CCCN(c2ncnc3onc(-c4ccc(F)cc4)c23)C1 (centres undefined) -8.02%
CCOc1ccccc1NC(=O)CCS(=O)(=O)c1ccc2c(c1)oc(=O)n2C -22.2%
CCOc1cc(-c2nnc(SCC(=O)NC3CCCCC3)nc2-c2ccc(OC)c(OCC)c2)ccc1OC -17.3%
COc1ccc(CNC(=O)CCCn2ccc3cc(S(=O)(=O)N4CCCC4)ccc32)cc1 -15.1%
Cc1ccc(-n2nc(C(=O)N(C)c3ccc(C)c(C)c3)c3c4ccccc4n(C)c3c2=O)cc1 -33.9%
COc1ccc2c(CNCCc3ccco3)c(C(=O)O)n(Cc3ccc(C)cc3)c2c1 -9.88%
COc1ccc(Nc2ncc3c(n2)CCN(Cc2sccc2C)C3)c(OC)c1 -10.7%
O=C(Cn1ncc2c3ccccc3n(Cc3ccccc3)c2c1=O)NCc1ccccn1 -8.76%
Cc1ccc(-n2ncc3c(NCCCN(C)C)ncnc32)cc1Cl -15.9%
COc1ccc(C(CNC(=O)c2oc3cc(Br)ccc3c2C)N2CCCCC2)cc1 (centres undefined) -10.3%
O=[N+]([O-])c1ccc(S(=O)(=O)N2CCn3cccc3C2c2ccc(Br)cc2)cc1 (centres undefined) 0.437%
Cc1cc(=O)n(CC(=O)Nc2ccc(Cl)c(Cl)c2)c(-n2nc(C)cc2C)n1 -32.7%
CCOc1ccc(CNC(=O)C2CCCN(c3nn4cc(-c5ccc(OC)cc5)nc4s3)C2)cc1 (centres undefined) -28.5%
Cc1cccc(NC(=O)CCCn2nc(C)c3c(C)n(-c4ccccc4)nc3c2=O)c1C -16.8%
COc1ccc(NC(=O)CC2C(=O)N(c3ccccc3)C(=O)N2CCc2sccc2C)cc1 (centres undefined) -12.3%
CCOC(=O)CN1C(=O)N(c2ccc(C)c(C)c2)S(=O)(=O)c2ccccc21 -10.2%
Cc1ccc(CN2CCC(CNC(=O)c3cnn(-c4ccc(C)cc4)c3C3CCN(C(=O)OC(C)(C)C)CC3)CC2)cc1 14.1%
Cc1ccc(S(=O)(=O)N(CC(=O)Nc2cccnc2)c2cc(Cl)ccc2C)cc1 -2.81%
Oc1ccc(OCc2ccccc2)cc1 -15.2%
Cc1ccc(C(=O)CSc2nc3cc(C(=O)NC4CCCC4)ccc3c(=O)n2CC2CCCO2)c(C)c1 (centres undefined) -9.66%
CC(C)CCNc1nc2c(-c3ccccc3)nnn2c2ccccc12 -18%
COC(=O)c1ccccc1NC(=O)CSc1n[nH]c(CC(C)C)n1 -13.4%
Cc1nn(-c2ccccc2)c2nc(C3CC3)cc(C(=O)Nc3cccc(F)c3)c12 -11.4%
CCOc1ccc(CNC(=O)c2ccc(CSc3nc4ccncc4n3Cc3ccc(F)cc3)cc2)cc1 -8.14%
COc1cccc(NC(=O)c2oc3ccccc3c2NC(=O)c2ccccc2C)c1 -19.3%
O=C(CC1N=C2c3ccccc3N=C(SCc3cccc(F)c3)N2C1=O)NCc1cccs1 (centres undefined) -13.7%
COc1cccc(-c2cc(C(=O)Nc3cnn(Cc4ccc(Cl)cc4Cl)c3)no2)c1 -8.78%
COc1ccc2c(c1)c1c(c(=O)n(-c3cc(Cl)ccc3C)c(=O)n1CC(=O)N1CCCC1)n2C -4.14%
Cc1nn2c(=O)cc(COc3ccc(/C=C(\C#N)C(=O)Nc4ccccc4C)cc3)nc2s1 -12.3%
COc1ccc(-c2nnn3c2nc(NCCc2ccc(OC)c(OC)c2)c2ccccc23)cc1 -12.9%
COc1ccc(OC)c(Nc2nc3ccccc3nc2-n2nc(C)cc2C)c1 -2.81%
CCCCN(CCCC)CCCNC(=O)c1ccc2nc(N3CCCCC3)sc2c1 -9.04%
Cc1ccc(CNC(=O)CCNS(=O)(=O)c2ccc3c(c2)CCCC(=O)N3)cc1 -25.5%
COc1ccc(Cn2ccc3nc(C)c(C(=O)N4CCN(c5ccc(F)cc5)CC4)cc3c2=O)cc1 -15.5%
Cc1ccccc1NC(=O)c1c(NC(=O)c2ccccc2F)sc2c1CCC(C)C2 (centres undefined) -13.5%
COc1ccccc1NC(=O)c1ncn(-c2ccccc2)n1 -13.7%
CCCCN1C(=O)c2[nH]nc(-c3ccccc3O)c2C1c1ccc(OCc2ccccc2)c(OC)c1 (centres undefined) -12.9%
Cc1c(C(=O)OC2CCC(C)CC2)[nH]c2c1C(=O)CC(c1ccc(F)cc1)C2 (centres undefined) -18.5%
Cc1ccc(Sc2c(C)nn(C(C)(C)C)c2OC(=O)CC(C)C)cc1 -15.2%
Cc1nn(S(=O)(=O)c2ccc(F)cc2)c(C)c1S(=O)(=O)N1CCCCCC1 -4.38%
COc1cc(-c2cc(OC)c3c(C)oc(C)c3c(=O)c2)ccc1OC(=O)c1cccc(C)c1 -7.68%
Cc1ccc(CNC(=O)c2ccc3c(c2)c(C)c(C)n3Cc2ccc(Cl)cc2)o1 1.12%
Cc1ccc(C2C=C(c3ccccc3)Nc3nc(NS(C)(=O)=O)nn32)cc1 (centres undefined) -16%
Cc1c(-c2ccccc2)c(=O)oc2c(CN3CCOCC3)c(O)ccc12 -10.6%
COc1ccc(NC(=O)C2CCN(c3cc(C)nc4c(-c5ccc(Cl)cc5)c(C)nn34)CC2)cc1 -2.13%
CCOc1ccc(C2C(C(=O)Nc3ccc(OC)cc3)=C(C)Nc3nc(CCCO)nn32)cc1 (centres undefined) -14.1%
CCc1cccc(C)c1NC(=O)CSc1nc2ccncc2[nH]1 -5.24%
CCCc1cc(=O)[nH]c(SCc2nc(-c3ccc(OCC)cc3)no2)n1 -12.1%
Cc1ccc(C(=O)Nc2c(C(=O)Nc3ccc(C)c(C)c3)sc3nc(C)cc(C)c23)cc1 -15.5%
Cc1ccc(-c2noc(-c3ccc(N4CCCC4)c([N+](=O)[O-])c3)n2)cc1 -2.9%
CCOC(=O)c1c(C)oc2nc(C)nc(NCCc3ccc(Cl)cc3)c12 -17.4%
Cc1ccc(NC(=O)Cn2c(=O)n(Cc3ccc4c(c3)OCO4)c(=O)c3oc4ccccc4c32)cc1C -16.5%
CC(C)c1ccc(NC(=O)Cn2nnc(C(=O)NCc3ccc4c(c3)OCO4)c2N)cc1 -8.54%
CCOC(=O)C1CCN(Cc2cn3c(-c4ccc(OC)cc4)nnc3s2)CC1 -8.91%
COc1cccc(NS(=O)(=O)c2ccc3[nH]cc(C(=O)NC(C)c4ccccc4)c(=O)c3c2)c1 (centres undefined) -11%
Cc1cccc(NC(=O)c2cn(-c3ccccc3)nc2-c2ccccc2)c1C -7.36%
Cc1ccccc1CN1CCCN(CC(=O)Nc2ccc(F)cc2)S1(=O)=O -14.7%
CCOc1ccc(C(=O)Nc2ccc3nc(N(CC)CC)cc(C)c3c2)cc1 -4.67%
Cc1cc(N2CCC(C(=O)Nc3ccc(F)cc3F)CC2)n2nc(C)c(-c3ccc(Cl)cc3)c2n1 -6.16%
Cc1ccc(/C=C/C(=O)Nc2ccc3nc(N4CCC(C)CC4)cc(C)c3c2)cc1 -8.08%
Cn1c(=O)oc2cc(S(=O)(=O)NC(Cc3ccccc3)C(=O)Nc3ccc(F)c(Cl)c3)ccc21 (centres undefined) -4.22%
CCOC(=O)c1c(C)[nH]c(C)c1S(=O)(=O)N1CCN(c2cc(Cl)ccc2C)CC1 -19.8%
O=C(c1cc(-c2ccc(Cl)cc2)n[nH]1)N1CCN(S(=O)(=O)c2ccc(Br)s2)CC1 -3.5%
Cc1nnc(NC(=O)c2nc(SC(C)C)ncc2Cl)s1 -13.6%
Clc1ccccc1Cn1c(-c2cccs2)nc2ccccc21 -13%
CCOc1ccc(NC(=O)c2sc(-n3nc(C)c(Cc4ccc(Cl)cc4)c3C)nc2C)cc1 -12%
CCN(c1cccc(C)c1)S(=O)(=O)c1cc2c(cc1C)n(C)c(=O)c(=O)n2C -0.12%
CCOc1cccc2sc(NC(=O)c3ccc(S(=O)(=O)N4CCCCC4C)cc3)nc12 (centres undefined) -1.62%
Cc1cccc(N(C)C(=O)CCS(=O)(=O)c2ccc3c(c2)n(C)c(=O)c(=O)n3C)c1 -12.9%
CCc1cccc(NC(=O)c2ccc3c(c2)N(Cc2cccc(Cl)c2)C(=O)c2ccccc2S3=O)c1 (centres undefined) -3.26%
CCOC(=O)c1c(-c2ccc(C)cc2)csc1NC(=O)c1cc(-c2ccc(OC)cc2)on1 4.01%
Cc1cccc(NC(=O)CN(C)S(=O)(=O)c2ccc3c(c2)c(=O)n(C)c(=O)n3C)c1C 11.3%
CCCn1c2ccccc2c2cnn(CC(=O)NCCN(CC)CC)c(=O)c21 -15.3%
COc1ccc(-c2nc3ccccc3o2)cc1NC(=O)c1cccnc1 -11.8%
COc1ccc(CCNC(=O)c2ccc3c(c2)N=C(C)c2ccccc2S3)cc1OC -6.55%
COc1ccc(CCNS(=O)(=O)c2c(C)nc3sc(C)cn3c2=O)cc1OC -7.03%
Cc1cc(Nc2cccc(C(=O)O)c2)n2nc(C)nc2n1 -7.49%
CCCCOc1ccc(C(=O)Nc2cc(-c3cn4cccnc4n3)ccc2OC)cc1 3.28%
